{"source": "PubChem BioAssay AID504832", "about": "(National Center for Advancing Translational Sciences (NCATS), 2011)", "note": "The campaign covered roughly 310,000 compounds. About 18,000 (5.8%) were called active. The shares of active, inactive and inconclusive entries below differ from those in the screen. Calls follow the shape of the dose curve; as a rule, active = well fitted inhibition curve with a large enough effect; inconclusive = small, poorly fitted or top-dose-only effect, or another doubt; inactive = no such curve, though single readings can be large or run the other way. Potencies of inconclusive entries are left out as doubtful fits. % is scaled to controls: 0 for no effect and ±100 for the full control effect; potency is read from the fitted curve at half-maximal effect; tags tell the direction and shape of the fitted curve.", "data": [{"test": "Primary qHTS for delayed death inhibitors of the malarial parasite plastid, 48 hour incubation", "conditions": "P. falciparum luciferase growth in erythrocytes; series mostly up to 28.7 µM; activity change, negative = inhibition: at the top concentration", "outline": "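Erythrocytes infected with P. falciparum carrying an integrated firefly luciferase reporter (2% hematocrit, 0.1% parasitemia final) were exposed to compounds in RPMI 1640 with 0.5% Albumax at 37 C, 5% CO2. Growth inhibition was scored as reduced luminescence.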", "values": [{"smiles": "COc1ccc(N(CC(=O)N2CCc3ccccc32)S(=O)(=O)c2c(C)noc2C)cc1", "Potency": "inconclusive [inhibitor, full curve, poor fit]"}, {"smiles": "C=CCn1c(SCc2ccc(Cl)cc2)nc2c1c(=O)[nH]c(=O)n2C", "Potency": "inconclusive [inhibitor, full curve, poor fit]"}, {"smiles": "Cc1cc(CN(C)Cc2cn(C)nc2-c2ccc(Oc3ccccc3)cc2)on1", "Potency": "inconclusive [inhibitor, full curve, poor fit]"}, {"smiles": "CCc1nnc(NS(=O)(=O)c2ccc(NC(=O)c3ccc(Cl)cc3)cc2)s1", "Potency": "inconclusive [inhibitor, partial curve, poor fit]"}, {"smiles": "O=C(Nc1c2c(nn1-c1cccc(Cl)c1)CS(=O)(=O)C2)c1ccc2c(c1)OCO2", "Potency": "inconclusive [inhibitor, single point]"}, {"smiles": "CC1CCc2nc(NC(=O)C3CC3)sc2C1", "note": "(centres undefined)", "activity change, negative = inhibition": "inactive: 113%"}, {"smiles": "O=C1C(Cc2ccccc2)NC(=S)N1c1ccccc1", "note": "(centres undefined)", "Potency": "inconclusive [inhibitor, partial curve, poor fit]"}, {"smiles": "COC(=O)c1c(C)[nH]c(C(=O)CN2C(=O)NC3(CCOc4ccccc43)C2=O)c1C", "note": "(centres undefined)", "Potency": "inconclusive [inhibitor, partial curve, poor fit]"}, {"smiles": "Cc1csc(NC(=O)c2ccc(C)c(S(=O)(=O)N3CCOCC3)c2)n1", "Potency": "inconclusive [inhibitor, partial curve, poor fit]"}, {"smiles": "CC(C)c1ccccc1NC(=O)COC(=O)CCN1C(=O)/C(=C\\C=C\\c2ccccc2)SC1=S", "Potency": "inconclusive [inhibitor, single point]"}, {"smiles": "CC(C)(C)NC(=O)CSCc1ccc(Br)cc1", "activity change, negative = inhibition": "inactive: -0.361%"}, {"smiles": "CC(=O)c1ccc(OCC(=O)N2CCN(S(=O)(=O)c3ccc(Br)s3)CC2)cc1", "Potency": "inconclusive [inhibitor, partial curve]"}, {"smiles": "CCOc1ccc(S(=O)(=O)N(C)C2CCCCC2)cc1", "activity change, negative = inhibition": "inactive: 28.4%"}, {"smiles": "CCCN1CCN(C(=O)CCS(=O)(=O)c2cc3c(cc2Cl)NC(=O)CO3)CC1", "activity change, negative = inhibition": "inactive: 16.3%"}, {"smiles": "C=CCn1c(=O)c2ccccc2n2c(SCC(=O)Nc3sc(C(=O)N(CC)CC)c(C)c3C(=O)OCC)nnc12", "Potency": "active: 11.7 µM"}, {"smiles": "Cc1cccc(/C(N)=N/OC(=O)N2CCOCC2)c1", "Potency": "inconclusive [inhibitor, partial curve]"}, {"smiles": "Cc1ccc(/C(N)=N/OC(=O)c2ccc3ccccc3c2)cc1", "Potency": "inconclusive [inhibitor, single point]"}, {"smiles": "COC(=O)Cc1c(C(=O)OC)nnn1-c1ccc(OC(F)(F)F)cc1", "activity change, negative = inhibition": "inactive: 21.1%"}, {"smiles": "Cn1c(CCN2CCN(c3ccccn3)CC2)nc2cc(NC(=O)COc3ccccc3)ccc21", "Potency": "inconclusive [inhibitor, full curve]"}, {"smiles": "COc1cccc(NC(=O)C2CCC(CNS(=O)(=O)c3ccc4c(c3)CC(C)N4C(C)=O)CC2)c1", "note": "(centres undefined)", "Potency": "inconclusive [inhibitor, partial curve, poor fit]"}, {"smiles": "CC(=O)Nc1ccc(NC(=O)CN2CCN(c3ccccn3)CC2)cc1", "activity change, negative = inhibition": "inactive: 16%"}, {"smiles": "COc1cc(OC)cc(-c2c(C#Cc3ccsc3)c3cc(Br)ccc3n2C)c1", "Potency": "inconclusive [inhibitor, single point]"}, {"smiles": "Cc1cccc(/C=C2\\CCC(C3CCCC3)C2=O)c1", "note": "(centres undefined)", "activity change, negative = inhibition": "inactive: 32.7%"}, {"smiles": "NC(=S)N/N=C/c1ccc(-c2cccc([N+](=O)[O-])c2)o1", "Potency": "inconclusive [inhibitor, single point]"}, {"smiles": "CCCNCC(O)Cn1c2ccccc2n2c(=O)cc(C)c(C#N)c12", "note": "(centres undefined)", "Potency": "active: 3.7 µM"}, {"smiles": "CCCCNC(=S)N=Nc1c(O)[nH]c2ccccc12", "Potency": "inconclusive [inhibitor, single point]"}, {"smiles": "Fc1ccc(NC(=S)Nc2ccc(Br)cc2)cc1", "activity change, negative = inhibition": "inactive: 19.8%"}, {"smiles": "CSC(=S)N/N=C/c1ccc(Br)cc1", "Potency": "inconclusive [inhibitor, partial curve, poor fit]"}, {"smiles": "O=C(O)c1nn(CC(=O)N2CCN(c3ncc(C(F)(F)F)cc3Cl)CC2)c(=O)c2ccccc12", "activity change, negative = inhibition": "inactive: -4.13%"}, {"smiles": "CCN(CC)C(=O)CSc1nc2c(sc(=S)n2-c2ccccc2OC)c(=O)n1-c1ccccc1", "Potency": "active: 11.7 µM"}, {"smiles": "C/C(=N\\Nc1nc2ccccc2c(=O)n1O)c1ccco1", "activity change, negative = inhibition": "inactive: 162%"}, {"smiles": "CCn1cnc2sc(C(=O)N(Cc3ccc(N(C)C)cc3)Cc3ccco3)c(C)c2c1=O", "Potency": "inconclusive [inhibitor, single point]"}, {"smiles": "Cc1c(C(=O)N2CCN(CC(=O)Nc3ccccc3Cl)CC2)oc2ccc(Br)cc12", "Potency": "inconclusive [inhibitor, single point]"}, {"smiles": "Cc1nn(-c2ccccc2)c(C)c1C(=O)OCC(=O)c1c(N)n(CC(C)C)c(=O)n(C)c1=O", "Potency": "inconclusive [inhibitor, single point]"}, {"smiles": "Cc1cc(C)c(OCC(=O)Nc2nc3ccccc3[nH]2)c(C)c1", "activity change, negative = inhibition": "inactive: -9.86%"}, {"smiles": "COC/C=C/C1=CC2=CC(=O)C(C)(OC(=O)c3cnc4ccccc4n3)C(=O)C2=CN1c1ccccc1", "note": "(centres undefined)", "Potency": "inconclusive [inhibitor, single point]"}, {"smiles": "COc1ccc(N(C(=O)CCl)C(C)(C(=O)Nc2c(C)cccc2C)c2ccccn2)cc1", "note": "(centres undefined)", "Potency": "active: 4.65 µM"}, {"smiles": "O=C(O)CCN1CC2([N+](=O)[O-])CC=C(OCCO)C([N+](=O)[O-])(C1)C2", "note": "(centres undefined)", "Potency": "inconclusive [inhibitor, full curve, poor fit]"}, {"smiles": "Cc1ccc(S(=O)(=O)NCCCN2CCOCC2)cc1C", "activity change, negative = inhibition": "inactive: -10.5%"}, {"smiles": "CCN(CC)S(=O)(=O)c1ccc2oc(C(=O)NCc3ccc(C)cc3)c(C)c2c1", "Potency": "active: 9.28 µM"}, {"smiles": "CCCC(=O)c1ccc(-c2ccccc2)cc1", "activity change, negative = inhibition": "inactive: 63%"}, {"smiles": "CCC1CCCCN1CCNC(=O)c1[nH]c(C)c(C(C)=O)c1C", "note": "(centres undefined)", "Potency": "inconclusive [inhibitor, single point]"}, {"smiles": "O=C(NN1C(=O)c2ccccc2C1=O)c1ccc2c(c1)C(=O)N(CC1CCCO1)C2=O", "note": "(centres undefined)", "activity change, negative = inhibition": "inactive: 45.3%"}, {"smiles": "COc1ccc(-c2nc(N)n(S(=O)(=O)c3ccc(C)cc3)n2)cc1", "Potency": "inconclusive [inhibitor, partial curve, poor fit]"}, {"smiles": "CCOC(=O)c1cnc(-c2ccccc2)nc1Oc1ccc(Cl)cc1", "Potency": "inconclusive [inhibitor, partial curve, poor fit]"}, {"smiles": "O=C(NC1=NCCS1)c1cccs1", "Potency": "inconclusive [inhibitor, single point]"}, {"smiles": "CCCC(C)C(=O)Nc1cc(S(=O)(=O)N2CCCCC2)ccc1N1CCOCC1", "note": "(centres undefined)", "Potency": "inconclusive [inhibitor, partial curve]"}, {"smiles": "Cc1nn(Cc2ccccc2)c(C)c1NC(=O)CSc1nc(-c2ccccc2)nc2c1cnn2-c1ccccc1", "activity change, negative = inhibition": "inactive: 0.841%"}, {"smiles": "CCN1CCN(C(C)C(=O)Nc2c(C)n(C)n(-c3ccccc3)c2=O)CC1", "note": "(centres undefined)", "activity change, negative = inhibition": "inactive: -10.5%"}, {"smiles": "CCC(C)(C)n1nnnc1C(c1ccc(F)cc1)N1CCN(C(=O)c2ccco2)CC1", "note": "(centres undefined)", "activity change, negative = inhibition": "inactive: -16.6%"}, {"smiles": "O=C(Nc1ccccc1Cl)N(Cc1nc2ccccc2c(=O)[nH]1)Cc1cccs1", "Potency": "inconclusive [inhibitor, partial curve, poor fit]"}, {"smiles": "CCOc1ccc(NC(=S)N2CCN(S(=O)(=O)c3ccc(OC)cc3)CC2)cc1", "Potency": "inconclusive [inhibitor, single point]"}, {"smiles": "COc1cc(OC)cc(C(=O)Nc2nnc(Cc3ccc(OC)c(OC)c3)s2)c1", "activity change, negative = inhibition": "inactive: 0.0364%"}, {"smiles": "Cc1nn(-c2ccccc2)c(N2CCCC2)c1/C=N/n1cnc2scc(-c3ccccc3)c2c1=O", "Potency": "inconclusive [inhibitor, full curve]"}, {"smiles": "Cc1ccc(S(=O)(=O)N2CCN(c3ncnc4sccc34)CC2)cc1C", "Potency": "active: 13.1 µM"}, {"smiles": "COc1ccc(-n2c(SCC(=O)N/N=C/c3ccccc3OCC(=O)O)nc3ccccc3c2=O)cc1", "activity change, negative = inhibition": "inactive: -6.47%"}, {"smiles": "Cc1cc2oc(=O)cc(COC(=O)Cn3cnnn3)c2cc1C(C)C", "Potency": "inconclusive [inhibitor, partial curve]"}, {"smiles": "CCN(CC)S(=O)(=O)c1cccc(C(=O)NCC2(N3CCOCC3)CCCCC2)c1", "Potency": "inconclusive [inhibitor, single point]"}, {"smiles": "COc1ccc(C(=O)Nc2ccc(-c3ccc(C)o3)cc2)cc1S(=O)(=O)N1CCOCC1", "Potency": "inconclusive [inhibitor, single point]"}, {"smiles": "COc1ccc(C2CC(=O)C3=C(C2)NC(C)=C(C#N)C3c2ccc(N(C)C)cc2)cc1", "note": "(centres undefined)", "Potency": "active: 6.57 µM"}, {"smiles": "CCO/C(C)=N/n1c2nc3ccccc3nc2c2c(=O)n(Cc3ccccc3Cl)c(C)nc21", "Potency": "active: 0.738 µM"}, {"smiles": "Cc1ccc(S(=O)(=O)NCC2CCC(C(=O)N3CCN(C)CC3)CC2)cc1", "note": "(centres undefined)", "activity change, negative = inhibition": "inactive: 12.3%"}, {"smiles": "COc1ccc(OC)c(S(=O)(=O)N2CCCC(C(=O)NCc3ccccn3)C2)c1", "note": "(centres undefined)", "activity change, negative = inhibition": "inactive: 5.29%"}, {"smiles": "CCCn1c2c(c(O)c(C(=O)Nc3ncccc3O)c1=O)CCCC2", "activity change, negative = inhibition": "inactive: 5.32%"}, {"smiles": "CCn1c(C)nc2cc(C(=O)N/N=C(\\C)c3ccc(OC)cc3O)ccc21", "Potency": "inconclusive [inhibitor, single point]"}, {"smiles": "CCN(CC)c1ccc(/C=N/NC(=O)C(O)(c2ccccc2)c2ccccc2)o1", "Potency": "inconclusive [inhibitor, single point]"}, {"smiles": "COc1ccc(CCCNC(=O)C2CCC(=O)N(CC3CCCCC3)C2)cc1", "note": "(centres undefined)", "Potency": "inconclusive [inhibitor, partial curve]"}, {"smiles": "CC(=O)c1c(N2CCOCC2)nc2ccc(Cl)cc2c1-c1ccccc1", "Potency": "inconclusive [inhibitor, single point]"}, {"smiles": "CC1=C(C(=O)N2CCCC(C(=O)c3cccc(C(F)(F)F)c3)C2)OCCO1", "note": "(centres undefined)", "Potency": "inconclusive [inhibitor, partial curve]"}]}]}
